Results on 40 compounds are retold here after PubChem BioAssay (NCATS).

The other results are listed elsewhere or left out. Further columns of the screen follow, without active or inactive calls. Potencies come from curve fits of mixed quality, noted in brackets.
Tags give direction and shape of the fitted curve.

A short description of the first assay: qHTS drug screen for cell cycle checkpoint inhibitors in PARPi-resistant BRCA-mutant ovarian cancer cell lines. (AID 1963452). The conditions noted are these: PEO1/OlaR viability, CellTiter-Glo luminescence, 96 h; measured here: PEO1 parental viability. The method, boiled down:
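PEO1, PEO4 and PEO1/OlaR ovarian cancer cells, 600 per well, exposed 96 h at 37C to a dilution series. Viability read by CellTiter-Glo luminescence, normalized to DMSO and empty wells; activity summarized as Z-AUC.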
In general, AC50 refers to the midpoint of the concentration-response curve, whichever way the signal moves. Take `CCn1c(-c2nonc2N)nc2cnc(Oc3cccc(NC(=O)c4ccc(OCCN5CCOCC5)cc4)c3)cc21`: the AC50 is 2.75 µM [falling, full curve, poor fit].

Take `CC(C)(Cc1ccc2ccccc2c1)NC[C@@H](O)COc1cccc(Cl)c1C#N`: the AC50 was 17.4 µM [falling, single point].

Regarding `COc1cc([C@@H]2c3cc4c(cc3[C@H](O)[C@H]3COC(=O)[C@H]23)OCO4)cc(OC)c1OC`, the AC50 is 0.049 µM [falling, full curve].

As for `COc1cc([C@@H]2c3cc4c(cc3[C@H](O)[C@H]3COC(=O)[C@@H]23)OCO4)cc(OC)c1OC`, the AC50 was 0.549 µM [falling, full curve].

As for `CC(C)n1nc(-c2ccc3oc(N)nc3c2)c2c(N)ncnc21`, the AC50 is 0.616 µM [falling, full curve].

On to `CC(C)C[C@H](NC(=O)[C@H](CCc1ccccc1)NC(=O)CN1CCOCC1)C(=O)N[C@@H](Cc1ccccc1)C(=O)N[C@@H](CC(C)C)C(=O)[C@@]1(C)CO1`, for which the concentration at half-maximal activity (AC50) was 0.0087 µM [falling, full curve].

Regarding `CC(C)[C@H](C(=O)Nc1ccc(C(=O)NO)cc1)c1ccccc1`, the AC50 is 1.74 µM [falling, full curve].

Take `Cn1c2ccccc2c2c3c(c4c5ccccc5n(CCC#N)c4c21)CNC3=O`: the AC50 was 9.77 µM [falling, partial curve].

As to `CC(O)(C#Cc1ccc2c(c1)N(c1nc(N)ncc1Cl)CC2)c1nccs1` (stereo not drawn), the AC50 was 21.9 µM [falling, partial curve, poor fit].

Turning to `O=c1cc(-c2cccc3c2Sc2ccccc2S3)oc(N2CCOCC2)c1`, the AC50 is 24.5 µM [falling, single point].

In the case of `NC(=O)Nc1cc(-c2cccc(F)c2)sc1C(=O)N[C@H]1CCCNC1`, the AC50 was 0.174 µM [falling, full curve].

For `O=C(NC[C@H](O)CO)c1ccncc1Nc1ccc(I)cc1F`, the AC50 is 3.09 µM [falling, partial curve].

On to `CCCC1OC2C[C@@H]3[C@H]4CCC5=CC(=O)C=C[C@]5(C)[C@H]4C(O)C[C@]3(C)[C@]2(C(=O)CO)O1` (stereo partly drawn), for which the AC50 is 17.4 µM [falling, partial curve, poor fit].

The same assay, now with this note: PEO1/OlaR viability, CellTiter-Glo luminescence, 96 h; measured here: PEO4 viability.
Consider `COc1cccc([C@@H](C)NCCCc2ccccc2Cl)c1`, for which the AC50 is 17.4 µM [falling, partial curve].

`Cc1cn(-c2cc(NC(=O)c3ccc(C)c(Nc4nccc(-c5cccnc5)n4)c3)cc(C(F)(F)F)c2)cn1`: the AC50 is 7.76 µM [falling, partial curve].

`CN(C)C(=O)c1ccc(S(=O)(=O)c2ccc(NC(=O)[C@@](C)(O)C(F)(F)F)c(Cl)c2)cc1`: the AC50 is 17.4 µM [falling, partial curve].

As to `CC(C)(O)c1cc2nc(-c3cnc(N)nc3)nc(N3CCOCC3)c2s1`, the AC50 was 0.977 µM [falling, full curve].

As to `O=C(N[C@@H](c1ccccc1)[C@@H]1CCCCN1)c1cccc(C(F)(F)F)c1Cl`, the AC50 was 27.5 µM [falling, single point].

For `O=C(O)c1ccc(Nc2ncc3c(n2)-c2ccc(Cl)cc2C(c2c(F)cccc2F)=NC3)cc1`, the AC50 is 0.219 µM [falling, full curve].

Consider `CC(=O)Nc1nc(C)c(-c2ccc(Cl)c(S(=O)(=O)NCCO)c2)s1`, for which the AC50 is 6.92 µM [falling, partial curve].

Take `CC(C)C[C@H](NC(=O)CNC(=O)c1cc(Cl)ccc1Cl)B1OC(=O)CC(CC(=O)O)(C(=O)O)O1` (stereo partly drawn): the AC50 is 0.0123 µM [falling, full curve].

Take `Nc1cc(C(F)(F)F)c(-c2cc(N3CCOCC3)nc(N3CCOCC3)n2)cn1`: the half-maximal activity concentration (AC50) is 1.55 µM [falling, full curve].

Consider `CN1c2ccccc2C(=O)N2CCc3c([nH]c4ccccc34)C21` (stereo not drawn), for which the AC50 was 1.23 µM [falling, full curve].

Consider `Cn1cc(CNCC2CCN(c3ncc(C(=O)NO)cn3)CC2)c2ccccc21`, for which the AC50 was 0.195 µM [falling, full curve].

On to `NC(=O)c1ccc(-c2nc(-c3ccc4c(c3)OCCO4)c(-c3ccccn3)[nH]2)cc1`, for which the AC50 was 24.5 µM [falling, single point].

As for `N#CC(c1ccc(Cl)cc1)c1c(Cl)cc(-n2ncc(=O)[nH]c2=O)cc1Cl` (stereo not drawn), the AC50 is 3.47 µM [falling, full curve, poor fit].

Take `COc1ccc(C=Cc2cc(OC)c(OC)c(OC)c2)cc1NC(=O)[C@H](N)CO`: the AC50 is 0.049 µM [falling, full curve].

In the case of `O=C1c2ccccc2-[n+]2ccc3c([nH]c4ccccc43)c21`, the AC50 is 0.245 µM [falling, full curve].

For the compound `Cc1ccc(C(=O)N(CCCN)[C@@H](c2oc3cc(Cl)ccc3c(=O)c2Cc2ccccc2)C(C)C)cc1`, the AC50 was 15.5 µM [falling, partial curve, poor fit].

As for `COc1cc(F)c(F)c(Nc2ccc(I)cc2F)c1NS(=O)(=O)C1(C[C@H](O)CO)CC1`, the AC50 was 7.76 µM [falling, partial curve].

Regarding `CCc1cc(Nc2nccc(-c3c(-c4ccc(OC)c(C(=O)Nc5c(F)cccc5F)c4)nc4ccccn34)n2)c(OC)cc1N1CCC(N2CCN(S(C)(=O)=O)CC2)CC1`, the AC50 was 6.16 µM [falling, partial curve].

For the compound `Cc1cc(Nc2ncc3c(n2)N(C)C(=O)N(c2cc(NC(=O)c4cccc(C(F)(F)F)c4)ccc2C)C3)n(C)n1`, the AC50 was 2.75 µM [falling, partial curve].

For the compound `COc1cc(Oc2ccnc3cc(OC)c(OC)cc23)ccc1NC(=O)NC(C)c1nccs1` (stereo not drawn), the AC50 is 7.76 µM [falling, partial curve, poor fit].

In the case of `COc1c(OCCCN2CCOCC2)ccc2c3n(c(=NC(=O)c4cnc(N)nc4)nc12)CCN3`, the AC50 is 0.283 µM [falling, full curve].

With `CC(C)c1cnn2c(NCc3ccccc3)cc(N[C@@H](CO)[C@H](O)CO)nc12`, the AC50 was 0.174 µM [falling, full curve].

As for `NS(=O)(=O)c1ccc(NC2=CC(=O)c3ccccc3C2=O)cc1`, the AC50 was 3.89 µM [falling, full curve].

As to `CCC[C@H](Nc1nc(-c2ccc(NC(=O)NCC)c(OC)c2)ncc1C)c1cccnc1`, the AC50 is 0.0098 µM [falling, full curve].

`Oc1cccc(-c2nc(N3CCOCC3)c3oc4ncccc4c3n2)c1`: the AC50 was 0.174 µM [falling, partial curve, poor fit].

`c1ccc2c(-c3cnn4cc(-c5ccc(N6CCNCC6)cc5)cnc34)ccnc2c1`: the AC50 was 3.09 µM [falling, full curve].

`Cc1ccc(C2=Nc3ccc(Cl)cc3OC2)cc1`: the AC50 is 13.8 µM [falling, single point].

Take `CCn1c(-c2nonc2N)nc2cnc(Oc3cccc(NC(=O)c4ccc(OCCN5CCOCC5)cc4)c3)cc21`: the concentration at half-maximal activity (AC50) was 6.16 µM [falling, partial curve, poor fit].

Consider `CC(C)(Cc1ccc2ccccc2c1)NC[C@@H](O)COc1cccc(Cl)c1C#N`, for which the AC50 is 17.4 µM [falling, partial curve].

Regarding `COc1cc([C@@H]2c3cc4c(cc3[C@H](O)[C@H]3COC(=O)[C@H]23)OCO4)cc(OC)c1OC`, the AC50 was 0.0219 µM [falling, full curve, poor fit].

Consider `COc1cc([C@@H]2c3cc4c(cc3[C@H](O)[C@H]3COC(=O)[C@@H]23)OCO4)cc(OC)c1OC`, for which the AC50 was 0.309 µM [falling, full curve].

On to `CC(C)n1nc(-c2ccc3oc(N)nc3c2)c2c(N)ncnc21`, for which the AC50 was 0.138 µM [falling, full curve].

For `CC(C)C[C@H](NC(=O)[C@H](CCc1ccccc1)NC(=O)CN1CCOCC1)C(=O)N[C@@H](Cc1ccccc1)C(=O)N[C@@H](CC(C)C)C(=O)[C@@]1(C)CO1`, the AC50 is 0.0087 µM [falling, full curve].

For `CC(C)[C@H](C(=O)Nc1ccc(C(=O)NO)cc1)c1ccccc1`, the half-maximal activity concentration (AC50) was 3.47 µM [falling, partial curve].

Regarding `Cn1c2ccccc2c2c3c(c4c5ccccc5n(CCC#N)c4c21)CNC3=O`, the half-maximal activity concentration (AC50) was 5.49 µM [falling, full curve].

As to `CC(O)(C#Cc1ccc2c(c1)N(c1nc(N)ncc1Cl)CC2)c1nccs1` (stereo not drawn), the AC50 was 15.5 µM [falling, single point].

As to `O=c1cc(-c2cccc3c2Sc2ccccc2S3)oc(N2CCOCC2)c1`, the AC50 is 27.5 µM [falling, single point].

Regarding `NC(=O)Nc1cc(-c2cccc(F)c2)sc1C(=O)N[C@H]1CCCNC1`, the AC50 was 0.347 µM [falling, full curve].

Regarding `O=C(NC[C@H](O)CO)c1ccncc1Nc1ccc(I)cc1F`, the AC50 was 2.19 µM [falling, partial curve].

As to `CCCC1OC2C[C@@H]3[C@H]4CCC5=CC(=O)C=C[C@]5(C)[C@H]4C(O)C[C@]3(C)[C@]2(C(=O)CO)O1` (stereo partly drawn), the AC50 is 8.71 µM [falling, partial curve, poor fit].
